Out of some 420,000 compounds screened, about 64,000 (15%) were called active. This list was built around the results that the source calls inconclusive (neither active nor inactive); the mix of calls is not that of the screen. Calls come from the whole dose curve; as a rule, active = well fitted inhibition curve with a large enough effect; inconclusive = small, poorly fitted or top-dose-only effect; inactive = flat fitted curve, though single readings scatter. Potencies of inconclusive entries are left out as doubtful fits. More than one record can exist for a structure, and the calls need not agree.
Assay: qHTS for Inhibitors of human tyrosyl-DNA phosphodiesterase 1 (TDP1): qHTS in cells in absence of CPT; note: nearly all actives have a fitted effect of over 55% in size
Conditions: DT40 Tdp1-/- hTDP1 cells, no CPT, ATP luminescence, 48 h; activity change, negative = growth inhibition: at 46.2 µM (top of the series) unless noted
Outline: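 DT40 Tdp1-/-;hTDP1 cells, no CPT (DMSO vehicle only), 400 cells/well; compounds pin-transferred; ≥48 hr, 37 °C; CellTiter-Glo 30 min RT dark, luminescence read.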
% is set by controls: 0 for no effect and ±100 for the full control effect; potency is the fitted concentration of half-maximal effect; tags give direction and shape of the fitted curve.

Structure (SMILES) | activity change, negative = growth inhibition | Potency
O=C(C[n+]1ccccc1)N/N=C/c1ccccc1Cl | inactive: 9.59% | –
CSCC[C@H](NC(=O)Cc1c(C)c2c(cc(C)c3c(C)c(C)oc32)oc1=O)C(=O)O | inactive: 6.33% | –
Cc1nc2nc(NC(=O)c3ccco3)[nH]n2c(=O)c1C | inactive: 15.2% | –
CCC(C)NC(=O)c1cc(Cl)c(NC(=O)C2=C(C)OCCS2)cc1OC (stereo unspecified) | – | inconclusive [inhibitor, partial curve, poor fit]
Cc1ccc(Cn2c(SCC(=O)NCC3CCCO3)nc3ccsc3c2=O)cc1 (stereo unspecified) | inconclusive: -31% [inhibitor] | –
O=C(O)c1ccc(-n2nnnc2Oc2cccc3cccnc23)cc1 | inactive: -5.4% | –
COc1cccc(/C=N/NC(=O)c2ccccc2N(Cc2ccccc2)S(=O)(=O)c2ccccc2)c1OC | – | active: 18.4 µM
Cc1ccc(S(=O)(=O)c2nc(NCCCn3ccnc3)sc2Cl)cc1 | – | active: 20.6 µM
CC1(C(=O)NCc2ccc3c(c2)OCO3)CCN1Cc1csc2ccccc12 (stereo unspecified) | – | inconclusive [inhibitor, single point]
Cn1c(Cc2ccccc2)nnc1SCC(=O)c1cccs1 | inactive: -2.2% | –
Cc1cc(C)c(NC(=O)COC(=O)CSc2ccc(Br)cc2C)c(C)c1 | – | inconclusive [inhibitor, full curve, poor fit]
CN(C)S(=O)(=O)c1cc(NC(=O)CSc2nn(-c3ccc(Cl)cc3)c(=S)s2)ccc1Cl | – | inconclusive [inhibitor, single point]
Cc1ccc(NC(=O)C2CCN(S(C)(=O)=O)CC2)c(C)c1 | inactive: 3.27% | –
COc1ccc(-c2nnn(CC(=O)N(CCCO)C(C(=O)NC3CCCC3)c3ccc(F)cc3)n2)cc1 (stereo unspecified) | – | inconclusive [inhibitor, single point]
COc1ncnc2c1oc1nc(C)c3c(c12)CC(C)(C)OC3 | inconclusive: -34.7% [inhibitor] | –
Cc1cccc(N2CCN(C(=O)c3ccccc3OCc3c(C)noc3C)CC2)c1C | – | active: 16.4 µM
COCCCNc1nc2ccccc2nc1NS(=O)(=O)c1cccc(C)c1 | – | inconclusive [inhibitor, single point]
COc1cccc(OC)c1-c1nn(-c2ncc(C(F)(F)F)cc2Cl)c(=O)o1 | – | inconclusive [inhibitor, single point]
COc1ccc(N=C2C(=O)Nc3ccc(C)c(Br)c32)cc1 | – | inconclusive [inhibitor, single point]
Cc1cc(NC(=O)c2cnn3c(C(F)(F)F)cc(-c4ccccc4)nc23)no1 | – | active: 23.1 µM
Cc1ccc(S(=O)(=O)N2CCN(Cc3cc4c(cc3Br)OCCO4)CC2)cc1 | – | inconclusive [inhibitor, single point]
Cc1nn(C(C)C(=O)NCCc2ccco2)c(=O)c2nn(-c3ccccc3)c(C)c12 (stereo unspecified) | – | inconclusive [inhibitor, single point]
Nn1c(Cc2ccccc2)nc2sc3c(c2c1=O)CCC3 | – | inconclusive [inhibitor, full curve, poor fit]

Structure (SMILES) | activity change, negative = growth inhibition | Potency
COC(=O)[C@@]1(Cc2ccc(OC)cc2)[C@@H]2C(=CC(=O)[C@H]2CC(=O)C(=O)N(C)C)CN1C(=O)c1ccccc1 | – | active: 16.4 µM
C[C@@H](NC(=O)c1[nH]cnc1C(=O)Nc1ccccc1)c1ccccc1 | – | inconclusive [inhibitor, partial curve, poor fit]
O=C(NN=Cc1ccc(O)cc1)C(=O)NN=Cc1ccc(O)cc1 | inactive: -15.4% | –
COc1ccc2c(c1)c(=O)c(S(=O)(=O)c1ccc(C)c(C)c1)cn2CC(=O)Nc1ccccc1 | inconclusive: -38.1% [inhibitor] | –
COc1ccc(CC(NC(C)=O)C(=O)NC2CCN(c3nc(C)cc(C)c3C#N)CC2)cc1 (stereo unspecified) | – | inconclusive [inhibitor, single point]
Cc1cc(C)c2nc(N3CCN(C)CC3)c(C#N)cc2c1 | – | inconclusive [inhibitor, partial curve]
Cc1ccccc1-c1nc(CS(=O)(=O)CC(=O)NC(C)c2ccccc2)c(C)o1 (stereo unspecified) | – | active: 16.4 µM
CCN(CCCNC(=O)c1cc2c(=O)n(CC)c3ccccc3c2s1)c1cccc(C)c1 | – | inconclusive [inhibitor, single point]
O=C(Nc1ccccn1)c1ccc(NC(=O)c2ccco2)cc1 | inconclusive: -30.9% [inhibitor] | –
CN(C)C(=O)/C=C\c1cn(-c2ccccc2)nc1-c1ccc2c(c1)OCCO2 | – | inconclusive [inhibitor, single point]
O=C(/C=C/c1ccc(Br)cc1)NC1CCCCCC1 | – | inconclusive [inhibitor, full curve, poor fit]
COc1cc(-c2noc(C3CC(=O)N(c4ccc5c(c4)OCCO5)C3)n2)cc(OC)c1OC (stereo unspecified) | – | inconclusive [inhibitor, single point]
N#CCCCSC1=C(C#N)C(c2ccccc2Cl)CC(=O)N1 (stereo unspecified) | – | inconclusive [inhibitor, single point]
O=[N+]([O-])c1cccc(-c2nnn(C34CC5CC(CC(C5)C3)C4)n2)c1 | – | active: 18.4 µM
O=C(Nc1cc(F)ccc1F)C1COc2ccccc2C1 (stereo unspecified) | inactive: -11.2% | –
COc1cc(C)ccc1OCc1cc(C(=O)N(C)CCCN2CCOCC2)no1 | inactive: 2.81% | –
CCCC(CCC)C(=O)NC1CCN(Cc2ccccc2)CC1 | inactive: -1.78% | –
COc1cccc(CN(C)C(=O)c2ccc(Oc3ccccc3)cc2)c1OC | – | active: 20.6 µM
c1ccc(-c2ccccc2OCc2nnc3n2CCC3)cc1 | – | inconclusive [inhibitor, full curve]
CCc1cccc2cc3c(N)c(C(=O)Nc4ccc(S(=O)(=O)N5CCCC5)cc4)sc3nc12 | – | active: 8.2 µM
CCC1(c2ccccc2)C(=O)N(C(=O)OC(C)(C)C)N1C(=O)OC(C)(C)C (stereo unspecified) | inactive: 3.89% | –
COc1ccccc1NC(=O)c1ccc([N+](=O)[O-])cc1[N+](=O)[O-] | – | inconclusive [inhibitor, single point]
COc1ccc(Cl)cc1NC(=O)CN(c1cc(C)cc(C)c1)S(=O)(=O)c1c(C)n[nH]c1C | – | inconclusive [inhibitor, single point]
